# Reference: the supplement of paper PMC3334620
# Whole data set: some 33,000 sequences, median “E-score (-0.5 to 0.5)” near -0.056, cut for the highest 2% near 0.38. The list shows a part of the results.
# Target: Stb4 (UniProt P50104)
# Experiment: PBM E-score (8-mer binding enrichment) (E-score (-0.5 to 0.5)); higher = stronger / more preferred TF binding; most listed sequences are background and not binding sites
# Conditions: protein concentration: 200 nM; construct: GST-DNA-binding domain
# Outline: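 PURExpress in vitro transcription/translation supplied GST-tagged yeast transcription factors, either full-length or DNA-binding domain. Applied at about 100-200 nM to universal all-10-mer Agilent arrays double-stranded by primer extension, the bound protein was detected with fluorescent anti-GST. E-scores, modified Wilcoxon-Mann-Whitney statistics, were given by the Universal PBM Analysis Suite to ungapped eight-base words pooled with their reverse complements after masliner normalisation.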
row,Sequence,PBM E-score
1,CAACGCCG,0.109
2,ACTCAGTA,0.0263
3,GACTCAGC,-0.191
4,CTACTCAA,-0.278
5,AAGGCACC,0.00752
6,CCGTGTAA,0.095
7,GCGGGGCA,0.0728
8,CAGCTTTC,-0.0811
9,AACAGAAG,-0.176
10,CTACGCGC,0.0736
11,GCGATTGA,-0.113
12,TAAGGCCA,-0.139
13,GCGGTGAC,0.0445
14,TCTGCGAA,-0.386
15,ACAGTTCT,-0.0692
16,CGAGCAAG,-0.0695
17,ACGTGTCA,-0.139
18,GAGGGTAA,-0.0695
19,ACCTCGGG,0.421
20,ACTCAATG,-0.102
21,ACGATTCT,-0.05
22,GTTTTATA,0.0809

row,Sequence,PBM E-score
1,ACAAAACC,0.0673
2,GACAGATC,0.0617
3,CATTTATC,-0.131
4,AACTCCCT,-0.145
5,GACGACCC,-0.126
6,GCATCTAC,-0.0708
7,CTGCTCTC,-0.164
8,CGCCGTAC,0.0698
9,ACTCCGAG,0.395
10,TGAACTAA,-0.18
11,AATGTACC,0.102
12,CCTACTCA,-0.131
13,CGTTTCCC,0.0767
14,CTCGAGAG,-0.201
15,GGATAACC,0.151
16,AAGTTATC,-0.0752
17,ACAGTGAA,-0.178
18,GACCTGAC,-0.169
19,AGAGGGCG,-0.0668
20,GTAGGAGA,-0.148
21,CCCAGTAG,-0.161
22,GGCATAAA,0.0687

row,Sequence,PBM E-score
1,AAAGACAG,-0.209
2,GAGGCCCA,-0.0476
3,AGCCCCTA,-0.139
4,AAGCGGAG,-0.0556
5,CTCCGTAA,0.0582
6,CGCACAGA,-0.153
7,CGCGACAG,-0.103
8,CCCATCTC,-0.00926
9,CCCCCAAA,-0.339
10,CCTCTGAG,-0.116
11,TACCGCAA,0.101
12,ACACGTTG,-0.211
13,ACATCCCC,0.101
14,AGAAACGA,0.00044
15,ATGCCCCG,0.173
16,GAGATCGC,-0.143
17,ACGGTGAG,-0.139
18,CCATGGTA,-0.17
19,CATCCTGA,0.0103
20,TCTAATCA,0.0455
21,CATGCTTA,-0.188
22,AAGCGTCT,-0.0559

row,Sequence,PBM E-score
1,CTACGTAG,-0.0751
2,GGATTTTA,0.105
3,AAATCCTG,-0.159
4,CACCGTAC,-0.116
5,CCTAAAGA,-0.259
6,ACGAACAC,0.0555
7,AGTGGCTA,-0.11
8,GAGATTCA,-0.045
9,TGGAAACA,-0.0929
10,GTAATCGA,-0.0379
11,TATTATCA,-0.0339
12,CAATGACG,-0.131
13,AGGCCTTA,-0.225
14,ATGTAAGC,0.00776
15,AAGATCTT,-0.0117
16,CTCTGCAG,-0.225
17,CGGCGTCA,0.0505
18,CTTTTTAA,-0.226
19,CAGGACTA,-0.123
20,CGATTTCA,-0.0895
21,CAACTATG,-0.133
22,CCCTTGAC,-0.0794

row,Sequence,PBM E-score
1,CTCGTTTA,-0.0597
2,CGTTTCCA,0.0158
3,CGGAACTC,0.401
4,CCAGCCGA,0.322
5,ACTATCAA,0.0239
6,ACAAGCGG,0.0654
7,ATCATGAC,-0.181
8,ATGAGAAC,-0.00558
9,ACCGTAAT,-0.00014
10,GATGTCAC,-0.0155
11,AATAGACC,0.138
12,GCAATGGC,-0.0123
13,TCAAGGCA,-0.294
14,CCTCGGAG,0.408
15,AGCCAGAA,-0.133
16,AACTGAAG,-0.192
17,AGACAGTC,-0.0616
18,CAATATTC,0.106
19,CTCATTTA,0.0328
20,ATGCGGGG,0.0133
21,CCAGGAAC,-0.0439
22,AGGTCCAA,-0.103
